The values below come from ChEMBL document CHEMBL5308541, “MAIP: An Open-Source Tool to Enrich High-Throughput Screening Output and Identify Novel, Druglike Molecules with Antimalarial Activity” (ACS Med Chem Lett, 2023).

Hit rate of the full screen: of about 150,000 compounds, about 540 (0.36%) showed an effect of 50% or more. The list shows a part of the results.

This assay concerns Plasmodium falciparum. As to the kind of experiment: Primary screen in NF54 nanoGlo assay, in single point, at 2uM, 72h; a lower Z score goes with more inhibition. Format: functional, Erythrocyte. The note with it: timepoint 72 hour.
In the case of `CCCN(CC1CC1)C(=O)c1ccc(-c2nc3ccccc3[nH]2)cc1`, the “% Inhibition” value was -10% and the Z score was 1.75.
In the case of `Cc1cccc(N2CCC(Nc3ncc(Br)cn3)CC2)n1`, the “% Inhibition” value is 7% and the Z score was -1.11.
Taken in the same sequence, the figures for `COCCN(CC1CCCN2CCCCC12)C(=O)c1cc(-c2ccncc2)nc2ccc(C(C)C)cc12` (stereo unspecified) were 13% and -2.89.
Taken in the same sequence, the figures for `C[C@H](Oc1ccc2c(c1)OCO2)C(=O)N(C)Cc1cccc2ncccc12` were -9% and 1.73.
For the compound `Oc1ccc(OC(F)(F)F)cc1-c1ccc(NC2CCCC2)nn1`, the “% Inhibition” value is 7% and the Z score is -1.51.
Taken in the same sequence, the figures for `COCCNC(=O)c1ccc(NC(=O)N(C)C[C@@]2(C)CCN(C)C2)cc1` were 2% and -0.47.
For `FC(F)(F)c1cc(Oc2ccc3cn[nH]c3c2)nc(-c2cccnc2)n1`, the “% Inhibition” value is listed as -11% and the Z score is given as 2.11.
As for `O[C@H]1CCCN(C2CCN(CCCn3ccnc3)CC2)C1`, the “% Inhibition” value was -1% and the Z score worked out at 0.21.
Regarding `N#Cc1ccc2[nH]c(-c3ccco3)nc2c1`, the “% Inhibition” value is on record as -1% and the Z score amounted to 0.12.
For `Cc1cccc2c(C(=O)N(C)C3CCCCCC3)cc(-c3cnc(N)nc3)nc12`, in that order: 3% and -0.59.
Regarding `O=C(CNC(=O)c1cnc2ccccc2c1O)NCc1nc2ccccc2s1`, the “% Inhibition” value is -8% and the Z score is 1.15.
For `COc1ccc2[nH]c(CN3CCCC[C@@H]3CCN3CCOCC3)c(C)c2c1`, in that order: 2% and -0.29.
`COc1cc(-c2nc3c(C(C)(C)C)cc(C(C)(C)C)c(O)c3o2)ccc1O`: the “% Inhibition” value is recorded as -14% and the Z score is reported as 2.4.
`COCCOc1ccc(-c2noc([C@]3(C)COc4ccccc4O3)n2)cc1F`: the “% Inhibition” value is 2% and the Z score was -0.33.
Turning to `CC(C)c1noc(-c2ccnc(N[C@H]3CCCN(c4nccn(C)c4=O)C3)c2)n1`, the “% Inhibition” value is listed as -7% and the Z score is given as 1.31.
`c1ccc(-c2cc3ccc4ccccc4c3[nH]2)cc1`: the “% Inhibition” value is recorded as -6% and the Z score amounted to 1.13.
Consider `CC(C)(C)c1ccc(=O)n(C2CCN(C(=O)c3ccc(Cl)cc3)CC2)n1`, for which the “% Inhibition” value is reported as -6% and the Z score is on record as 1.05.
Take `Cc1ccc(Nc2ccc(NCCNC(=O)c3cnccn3)nn2)nc1`: the “% Inhibition” value is -12% and the Z score is on record as 2.07.
With `CN(Cc1nc2cc(Cl)ccc2[nH]1)C(=O)NC1CCN(CCO)CC1`, the “% Inhibition” value was determined as 6% and the Z score is -0.98.
For `CN(C)CCn1ncc(C(=O)NC2CCN(CC3CCCC3)CC2)c1-c1ccccc1`, in that order: 0% and 0.06.
Consider `Cc1onc(-c2ccc(F)cc2)c1C(=O)N1CCN([C@@H](C)c2nc3ccccc3s2)CC1`, for which the “% Inhibition” value is -4% and the Z score stood at 0.76.
Turning to `c1ccc(-c2cncc(Oc3ncncc3-c3ccccc3)c2)cc1`, the “% Inhibition” value amounted to 4% and the Z score was -0.65.
In the case of `CCN(Cc1noc(C2CC2)n1)C(=O)c1c[nH]c2ccc(OC)cc2c1=O`, the “% Inhibition” value is -8% and the Z score stood at 1.62.
For `O=C(O)c1c[nH]c2cc(F)c(F)cc2c1=O`, the “% Inhibition” value worked out at 1% and the Z score was -0.17.
With `Cc1nc(NC[C@H]2CN(C)CCN2C)cc(Nc2ccccc2)n1`, the “% Inhibition” value is given as -2% and the Z score is 0.46.
With `CCCc1nc(C)c(C(=O)N2CC(C)(C)C2C2CCCO2)o1` (stereo unspecified), the “% Inhibition” value is -10% and the Z score was determined as 1.91.
Regarding `c1nc(Nc2ccc(OCc3noc(C4CC4)n3)cc2)c2cc[nH]c2n1`, the “% Inhibition” value is -3% and the Z score is recorded as 0.69.
On to `CC(c1ccc(Cl)cc1)N(C(=O)C1CC2CCC1C2)C1CC1` (stereo unspecified), for which the “% Inhibition” value is listed as -4% and the Z score is 0.71.
As for `COCCCN1CC2(CCN(C(=O)[C@@H](C)Cn3cccn3)CC2)CC1=O`, the “% Inhibition” value is reported as -3% and the Z score came to 0.63.
In the case of `CCN1CCC[C@@H]1CN(Cc1ccncc1)C(=O)c1cc2sccc2[nH]1`, the “% Inhibition” value was found to be 1% and the Z score is recorded as -0.31.
Consider `COc1ccccc1N1CCN(S(=O)(=O)c2cc(C)cs2)CC1=O`, for which the “% Inhibition” value is 5% and the Z score was -0.71.
As for `CN(C)Cc1nnc(NCCC2CCN(C3CCCC3)CC2)o1`, the “% Inhibition” value is -6% and the Z score is listed as 1.23.
With `CN1CCCN(Cc2ccc(CNCc3cccc(O)c3)cc2)CC1`, the “% Inhibition” value is 17% and the Z score was -3.36.
`C[C@@H](c1cccc(-c2ccc(-c3nc(C4CC4)no3)cn2)c1)N1CCCC1`: the “% Inhibition” value is recorded as -5% and the Z score is reported as 1.05.
Consider `Cc1nnc(N2CCC(Oc3ccc(F)cc3F)CC2)o1`, for which the “% Inhibition” value is recorded as 1% and the Z score was -0.16.
In the case of `c1ccc(-c2ccnc(NCc3cccc(N4CCCC4)c3)n2)nc1`, the “% Inhibition” value was 8% and the Z score is -1.21.
Turning to `C[C@H]1Cc2cc(Cn3cnc(-c4ccccc4)c3-c3cncnc3)ccc2O1`, the “% Inhibition” value is listed as -7% and the Z score was determined as 1.15.
With `Cc1ccc(N2C[C@@H](C(=O)N3CCN(C(=O)c4cc(-c5ccncc5)[nH]n4)CC3)CC2=O)cc1C`, the “% Inhibition” value is on record as -3% and the Z score amounted to 0.48.
On to `Nc1nc2c(c(NCc3ccccc3-c3ccccc3)n1)CCNC2`, for which the “% Inhibition” value amounted to 0% and the Z score is -0.09.
As for `Cc1ccc(CN2CC[C@H](NCc3cc(-c4cccnc4)[nH]n3)C2)cc1`, the “% Inhibition” value is 7% and the Z score is given as -1.53.
Taken in the same sequence, the figures for `CN(Cc1cccc2cnccc12)C(=O)NCCN1CCCC[C@@H]1CO` were -1% and 0.27.
Regarding `Cc1nccn1CCN(C)C1CCN(c2cccc(-c3ccco3)c2)CC1`, the “% Inhibition” value was -2% and the Z score is 0.35.
Taken in the same sequence, the figures for `Cc1nc2ccc(C(=O)Nc3cn(C)nn3)cc2nc1C` were -10% and 2.15.
`O=C(Nc1cc(C2CCOCC2)[nH]n1)c1ccc(F)s1`: the “% Inhibition” value is reported as 2% and the Z score is listed as -0.3.
`C[C@@H](c1ccncc1)N1CCC(NC(=O)c2ccc3[nH]ccc3c2)CC1`: the “% Inhibition” value is 0% and the Z score is reported as -0.1.
`Cc1ccnc(NCCn2cnc(-c3ccccc3)c2-c2cccc(C#N)c2)c1`: the “% Inhibition” value is -5% and the Z score is 0.91.
Take `O=C(c1ccc(-c2ccc3nc[nH]c(=O)c3c2)cc1)N1CCCCCCC1`: the “% Inhibition” value was 2% and the Z score is on record as -0.34.
On to `Cc1ncsc1CCNCc1cn2cc(Cl)ccc2n1`, for which the “% Inhibition” value is on record as -2% and the Z score worked out at 0.47.
On to `COCCC(=O)Nc1c(O)c(Cl)cc(Cl)c1Cl`, for which the “% Inhibition” value was -7% and the Z score came out at 1.25.
On to `NS(=O)(=O)NC[C@H]1CCCN(c2nc(-c3cccc(Cl)c3)nc3c2CCCC3)C1`, for which the “% Inhibition” value is recorded as -3% and the Z score is 0.44.
As for `O=C(CC[C@@H]1CCCN2CCCC[C@H]12)N1CCN(c2ccncc2)CC1`, the “% Inhibition” value is recorded as -6% and the Z score is on record as 1.38.
Take `Cc1cc(C)nc(Nc2cccc(C(=O)N3CCN(CCc4ccncc4)CC3)c2)n1`: the “% Inhibition” value was -14% and the Z score worked out at 2.78.
For `C[C@H]1CCCCN1C1CN(C(=O)c2ccc(-c3ccnc(N)n3)cc2)C1`, in that order: -6% and 0.92.
`c1cc(-c2cnn3cccnc23)c2ccncc2c1`: the “% Inhibition” value was -4% and the Z score was determined as 0.61.
For `Nc1nc(CNc2cc(-c3ccccc3)nc3ccnn23)n[nH]1`, in that order: -2% and 0.48.
As for `C[C@H](NCCC1CCN(CC(F)(F)F)CC1)c1ccc2c(c1)OCCCO2`, the “% Inhibition” value is recorded as -5% and the Z score is on record as 0.69.
`CC[C@H](C)NC(=O)CN1CCN(C(=O)c2cc(Nc3nc(C)cc(C)n3)ccc2O)CC1`: the “% Inhibition” value is -1% and the Z score is given as 0.12.
For `CN1CCN(CCCN(CCC(=O)N2CCNCC2)C(=O)c2ccc(C(C)(C)C)cc2)CC1`, in that order: -4% and 0.72.
With `COc1ccccc1N1CCN([C@H]2CCCN(c3ncnc4[nH]ccc34)C2)CC1`, the “% Inhibition” value is reported as 1% and the Z score was -0.13.
On to `Cc1cc(-c2cccc(C(=O)NCCCN(C)C3CCCC3)c2)cnc1N`, for which the “% Inhibition” value was -2% and the Z score came out at 0.51.
Taken in the same sequence, the figures for `c1ccc(-c2cc(NCc3nc(-c4ccncc4)n[nH]3)n3nccc3n2)cc1` were -11% and 2.26.
Consider `CNc1cc(-c2ccc3ncnc(N4CCN(C)CC4)c3c2)c2cc[nH]c2n1`, for which the “% Inhibition” value was determined as 19% and the Z score was -3.37.
For `O=C(Nc1ccn(CCc2ccncc2)n1)c1cc2c(OC(F)(F)F)cccc2[nH]1`, in that order: -3% and 0.53.
Regarding `Fc1cc(CNc2nnc(-c3ccncc3)o2)ccc1OC(F)F`, the “% Inhibition” value worked out at 0% and the Z score is recorded as -0.04.
For `CCN(CC)CC1(Nc2ncnc3[nH]ccc23)CC1`, in that order: -5% and 0.78.
For `O=S(=O)(NCC1CC1)c1ccc(NC2CCN(C3CCCC3)CC2)nc1`, the “% Inhibition” value is reported as -10% and the Z score is given as 1.81.
With `O=C(C[C@H]1CCCOC1)N1CCCN(CCCn2ccnc2)CC1`, the “% Inhibition” value is -5% and the Z score stood at 0.9.
Turning to `Cc1[nH]c(C(=O)O)c(C)c1C(=O)NCC[C@H]1CCCCN1C(C)C`, the “% Inhibition” value is 0% and the Z score is 0.05.
In the case of `CN(C)C(=O)CN1CCCN(c2nccc(N3CCC(O)CC3)n2)CC1`, the “% Inhibition” value is 2% and the Z score was -0.37.
Taken in the same sequence, the figures for `FC(F)(F)c1cccc(CCN[C@H]2CCN(c3ccccc3)C2)c1` were 2% and -0.35.
Turning to `C1CC(COC2COCCC2NC2CCC3(CCNCC3)CC2)C1` (stereo unspecified), the “% Inhibition” value is -19% and the Z score was found to be 3.37.
As for `c1cc(NC[C@H]2CCCO2)ncc1-c1ccc(N2CCCC2)nc1`, the “% Inhibition” value is recorded as -5% and the Z score was found to be 1.
Taken in the same sequence, the figures for `Nc1nc(CCCNC2CCN(c3ccc(C(F)(F)F)cn3)CC2)cs1` were -2% and 0.39.
As for `COc1cc(NC(=O)N(C)CCc2cn[nH]c2)cc(OC)c1OC`, the “% Inhibition” value is reported as -9% and the Z score is 1.74.
As for `CN1CCCN(CCN2CCOCC2)CC12CCNCC2`, the “% Inhibition” value was -11% and the Z score is on record as 2.23.
Consider `Clc1ccc(-c2cc3ncnc(NC[C@H]4CN(c5nncs5)CCO4)c3s2)cc1`, for which the “% Inhibition” value was -8% and the Z score is 1.16.
For `CNc1nc(N2CCC(c3nccn3Cc3ccncc3)CC2)ncc1F`, the “% Inhibition” value was 5% and the Z score is on record as -1.07.
For the compound `CN1C2CCC1CC(NCc1cnn(-c3ccc(Cl)cc3)n1)C2` (stereo unspecified), the “% Inhibition” value worked out at 2% and the Z score is listed as -0.36.
On to `Cn1cc(N2CCC[C@H](NC(=O)c3cc(-c4ccccc4)[nH]n3)C2)cn1`, for which the “% Inhibition” value is on record as -3% and the Z score was 0.51.
Take `Cc1nn(C)c2nc(NC3COCC3N3CCOCC3)sc12` (stereo unspecified): the “% Inhibition” value is on record as -8% and the Z score was determined as 1.39.
Regarding `O=C(NCC1CCC2(CCOCC2)C1O)c1ccccc1OC1CCCCC1` (stereo unspecified), the “% Inhibition” value is recorded as -11% and the Z score was found to be 1.98.
As for `CC(C)n1c(=O)[nH]c2ccc(C(=O)N3CCC(NS(N)(=O)=O)CC3)cc21`, the “% Inhibition” value is -3% and the Z score amounted to 0.51.
As to `Cc1cnc(CN2CC(O)C(Cc3ccnc4ccccc34)C2)c(C)c1O` (stereo unspecified), the “% Inhibition” value was -4% and the Z score was determined as 0.81.

The term % Inhibition denotes the change of the read-out against control, counted positive when it falls.
